The campaign covered roughly 340,000 compounds. About 20 (0.006%) were called active. This list was built around the results that the source calls inconclusive (neither active nor inactive); the mix of calls is not that of the screen. Calls follow the shape of the dose curve; as a rule, active = well fitted inhibition curve with a large enough effect; inconclusive = small, poorly fitted or top-dose-only effect; inactive = no such curve, though single readings can be large or run the other way. Potencies of inconclusive entries are doubtful fits and often do not repeat.
Target: Sphingomyelin phosphodiesterase (Homo sapiens) (UniProt P17405)
Assay: Inhibitors of Secretory Acid Sphingomyelinase (S-ASM): qHTS
Conditions: placental ASM, HMU-PC fluorogenic substrate (series up to 57.5 µM), 60 min; activity change, negative = inhibition: at the top concentration
How it was run: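 qHTS format. ASM enzyme prepared from human placenta hydrolyses the fluorogenic substrate HMU-PC0 (9 uM final) over 60 min at 37 °C after a 10 min compound preincubation.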
Potency is read from the fitted curve at half-maximal effect; tags tell the direction and shape of the fitted curve.

Chain of UniProt P17405 (P17405 whole entry, looked up): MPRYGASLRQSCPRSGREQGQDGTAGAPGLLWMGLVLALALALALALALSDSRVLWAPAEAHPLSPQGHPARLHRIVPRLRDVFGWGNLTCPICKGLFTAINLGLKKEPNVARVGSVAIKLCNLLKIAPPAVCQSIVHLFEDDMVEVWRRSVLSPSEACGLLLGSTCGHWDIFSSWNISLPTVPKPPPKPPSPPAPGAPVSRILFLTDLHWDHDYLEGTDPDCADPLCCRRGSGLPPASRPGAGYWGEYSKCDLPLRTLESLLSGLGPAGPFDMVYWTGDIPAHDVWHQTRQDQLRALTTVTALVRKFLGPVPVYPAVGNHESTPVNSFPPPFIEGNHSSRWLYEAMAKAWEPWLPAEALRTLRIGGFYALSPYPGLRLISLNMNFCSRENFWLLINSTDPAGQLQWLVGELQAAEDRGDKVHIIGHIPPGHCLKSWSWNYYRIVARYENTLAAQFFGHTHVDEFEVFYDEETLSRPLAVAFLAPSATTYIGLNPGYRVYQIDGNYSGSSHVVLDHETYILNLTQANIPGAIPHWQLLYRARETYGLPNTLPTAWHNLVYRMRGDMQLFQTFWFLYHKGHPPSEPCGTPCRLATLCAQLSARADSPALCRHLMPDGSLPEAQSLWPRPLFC

Compound | Potency | activity change, negative = inhibition
COc1ccc2oc(C(=O)OCC(=O)Nc3ccc(OC)c(S(N)(=O)=O)c3)c(C)c2c1 | inconclusive: 100 µM [inhibitor, partial curve, poor fit] | 
CC(C)(C)c1ccc(C(=O)CC(Sc2ccc(Cl)cc2)C(=O)O)cc1 (configuration not stated) |  | inactive: 6.85%
CCN(CC)CCOc1ccc2c(c1)C(=NNC(=O)c1ccccn1)c1cc(OCCN(CC)CC)ccc1-2 | inconclusive: 316 µM [inhibitor, partial curve, poor fit] | 
CC(=O)Nc1ccc(NC(=O)c2cc(-c3cc(C)cc(C)c3O)n[nH]2)cc1 | inconclusive: 112 µM [inhibitor, partial curve] | 
C[C@H](CO)N1C[C@H](C)[C@@H](CN(C)C(=O)Nc2ccc(C(F)(F)F)cc2)Oc2c(NC(=O)Nc3ccccc3)cccc2C1=O | inconclusive: 79.4 µM [inhibitor, partial curve] | 
Cc1ccc(NC(=S)c2nc3ccccc3[nH]2)c(C)c1 |  | inactive: -8.03%
O=[N+]([O-])c1ccc(Cl)c(C2Nc3cccc4cccc(c34)N2)c1 | inconclusive: 141 µM [inhibitor, partial curve] | 
OC[C@H]1OC(Nc2ccc(N=Nc3ccccc3)cc2)[C@@H](O)[C@@H](O)[C@@H]1O (some centres not stated) | inconclusive: 282 µM [inhibitor, partial curve, poor fit] | 
Oc1ccc(N2CCN(c3ncnc4sc(-c5ccccc5)cc34)CC2)cc1 | inconclusive: 79.4 µM [inhibitor, partial curve, poor fit] | 
Cc1nonc1CN(C)C(=O)CC1C(=O)NCCN1Cc1ccc(F)c(F)c1 (configuration not stated) |  | inactive: 3.75%
O=C(NCCNC1CCC(c2ccccc2)CC1)c1cccs1 (configuration not stated) |  | inactive: -1.13%
CC1=C([N+](=O)[O-])C(c2cccc(Br)c2)C2=C(N1)c1ccccc1C2=O (configuration not stated) | inconclusive: 70.8 µM [inhibitor, partial curve, poor fit] | 
Cc1ccc2c(c1)C(=O)CC(c1ccc3c(c1)OCCO3)O2 (configuration not stated) |  | inactive: 6.03%
CCCc1nc(SCC(=O)N2CCCc3ccccc32)c2c(=O)n(C)c(=O)n(C)c2n1 | inconclusive: 112 µM [inhibitor, partial curve, poor fit] | 
Cc1ccc(-c2noc(CSc3nnnn3C3CCCCC3)n2)cc1 | inconclusive: 398 µM [inhibitor, partial curve, poor fit] | 
CN(C)c1ccc(S(=O)(=O)NCC(=O)OCC(=O)Nc2cc(Cl)cc(Cl)c2)cc1[N+](=O)[O-] | inconclusive: 112 µM [inhibitor, partial curve, poor fit] | 
Cc1nn(-c2ccccc2)c(Cl)c1/C=N/Nc1ccc(S(=O)(=O)Nc2ccccc2C(=O)O)cc1[N+](=O)[O-] | inconclusive: 112 µM [inhibitor, partial curve, poor fit] | 
OC(COc1ccc2ccccc2c1Br)Cn1cnc(-c2ccccc2)c1 (configuration not stated) | inconclusive: 70.8 µM [inhibitor, single point] | 
Cc1oc(-c2ccccc2Cl)nc1CSCC(=O)O |  | inactive: 1.2%
CCC1=NN2C(=N)/C(=C\c3cccn3-c3ccc(Br)cc3)C(=O)N=C2S1 | inconclusive: 224 µM [inhibitor, partial curve, poor fit] | 
CCOC(=O)c1cc(-c2nnc(-c3ccc(Oc4ccccc4)cc3)o2)c(C)nc1C | inconclusive: 141 µM [inhibitor, partial curve] | 

Compound | Potency | activity change, negative = inhibition
CCCN1C(=O)/C(=C/c2c(N3CCNC(=O)C3CC(=O)OCC)nc3c(C)cccn3c2=O)SC1=S (configuration not stated) | inconclusive: 100 µM [inhibitor, single point] | 
CC(=O)NC(CC(=O)OCC(=O)c1cc(C)ccc1C)c1ccccc1 (configuration not stated) |  | inactive: -0.446%
COC(=O)c1cc(OC)c(OC)cc1NC(=S)N1CCN(c2ccccc2)CC1 | inconclusive: 224 µM [inhibitor, partial curve] | 
CC(C)Cn1c(-c2cccnc2)nc2c1c(=O)[nH]c(=O)n2CC(C)C |  | inactive: -2.44%
Cc1cc(CNC(=O)COC(=O)c2ccc(Cl)c(N)c2)cc(C)c1O |  | inactive: 1.08%
O=C(c1cc(O)c(O)c([N+](=O)[O-])c1)c1ccccc1F | inconclusive: 708 µM [inhibitor, partial curve, poor fit] | 
CC1CCC(N2CCN(c3ccc([N+](=O)[O-])cc3)CC2)CC1 (configuration not stated) | inconclusive: 100 µM [inhibitor, partial curve, poor fit] | 
CC(=O)Nc1ccc(Nc2ccc(S(=O)(=O)C(F)(F)F)cc2[N+](=O)[O-])cc1 | inconclusive: 100 µM [inhibitor, partial curve, poor fit] | 
CCc1ccc(N2CC(C(=O)N3CCCC3)CC2=O)cc1 (configuration not stated) | inconclusive: 100 µM [inhibitor, partial curve, poor fit] | 
CCn1c(=O)c(C(=O)NNC(=O)c2ccccc2Br)c(O)c2ccccc21 | inconclusive: 89.1 µM [inhibitor, single point] | 
CCCCc1ccc(NC(=O)CN(C)CC(=O)Nc2ccccc2Cl)cc1 | inconclusive: 70.8 µM [inhibitor, single point] | 
CN(c1ccc(Cl)cc1)S(=O)(=O)c1nnc(NC(=O)c2ccco2)s1 | inconclusive: 2000 µM [inhibitor, partial curve, poor fit] | 
N#C/C(=N\Nc1ccc(S(=O)(=O)N2CCc3ccccc32)cc1)C(N)=S | inconclusive: 89.1 µM [inhibitor, single point] | 
Cc1nc(NC(=O)c2ccco2)sc1-c1csc(Nc2ccc(Cl)cc2)n1 | inconclusive: 891 µM [inhibitor, partial curve, poor fit] | 
C=CCn1c(C)cc(C(=O)COC(=O)c2cncc(Br)c2)c1C |  | inactive: -2.89%
O=C1CCCc2c1cc(C(=O)O)c(=O)n2-c1ccccc1 |  | inactive: 1.38%
CN(C)Cc1c(C(=O)N/N=C/c2ccccc2OCc2c(F)cccc2Cl)nnn1-c1nonc1N | inconclusive: 112 µM [inhibitor, partial curve, poor fit] | 
CCc1ccc(N2CC(C(=O)Nc3ccc(S(=O)(=O)Nc4nccs4)cc3)CC2=O)cc1 (configuration not stated) | inconclusive: 79.4 µM [inhibitor, partial curve, poor fit] | 
CSc1ccc(C(=O)N2CCC(CCC(=O)NCc3ccc(F)cc3)CC2)cc1 |  | inactive: 0.524%
O=C1CN(C(=O)c2ccc(Br)o2)C(c2ccc(F)cc2)c2cc(Cl)ccc2N1 (configuration not stated) | inconclusive: 224 µM [inhibitor, partial curve, poor fit] | 
CCOC(=O)c1c(-c2ccc(-c3ccccc3)cc2)csc1NC(=O)CCN1CCOCC1 | inconclusive: 56.2 µM [inhibitor, single point] | 

Compound | Potency | activity change, negative = inhibition
Cc1cc(C)n(Cc2ccc(C(=O)N/N=C/c3ccc(-c4ccc([N+](=O)[O-])cc4)o3)o2)n1 | inconclusive: 398 µM [inhibitor, partial curve, poor fit] | 
CCOC(=O)[C@H]1[C@H]2COc3cc(OC)ccc3[C@@H]2N2C(=O)N(c3ccc(Cl)cc3)C(=O)[C@@]12C | inconclusive: 100 µM [inhibitor, partial curve, poor fit] | 
COc1ccc(C(=O)NCCCN=C2NS(=O)(=O)c3ccccc32)cc1 |  | inactive: 5.85%
Cc1onc(-c2ccccc2)c1C(=O)Nc1ccncc1 |  | inactive: 5.03%
CCCCC(CC)CN=C(N)NC(N)=NCCCCCCN=C(N)NC(N)=NCC(CC)CCCC (configuration not stated) | inconclusive: 89.1 µM [inhibitor, single point] | 
COc1cc2c(cc1OC)CN(C(=O)c1ccc(S(=O)(=O)N3CCCCC3)cc1)CC2 |  | inactive: 0.185%
COc1cc(/C=C2\CC(C(C)(C)C)C/C(=C\c3cc(OC)c(OC)c(OC)c3)C2=O)cc(OC)c1OC (configuration not stated) | inconclusive: 224 µM [inhibitor, partial curve, poor fit] | 
c1ccc(N2CCCCC2)c(Nc2nc3ccccc3n3cnnc23)c1 |  | inactive: -1.45%
NC(=O)c1ccc[n+](CC(=O)c2ccc(Cl)c(Cl)c2)c1 | inconclusive: 316 µM [inhibitor, partial curve, poor fit] | 
Cc1c(/C=N/n2cnnc2)c2ccccc2n1CCOc1ccccc1 | inconclusive: 56.2 µM [inhibitor, partial curve, poor fit] | 
COc1ccc(N=Nc2nc(-c3ccccc3)c(-c3ccccc3)[nH]2)cc1 | inconclusive: 79.4 µM [inhibitor, partial curve, poor fit] | 
COc1ccc(-c2cc(C(=O)N3CCN(c4ccc(F)cc4)CC3)no2)cc1OC | inconclusive: 224 µM [inhibitor, partial curve, poor fit] | 
O=C(Nc1ccon1)Nc1ccccc1C(F)(F)F |  | inactive: 8.57%
Cc1ccc(C(=O)Nc2ccccc2-c2ccccc2)cc1S(=O)(=O)Nc1ccccc1 | inconclusive: 891 µM [inhibitor, partial curve, poor fit] | 
CC(=O)c1cccc(S(=O)(=O)N2CCCC(c3nc4c(nnn4Cc4cccc(Cl)c4)c(=O)[nH]3)C2)c1 (configuration not stated) | inconclusive: 100 µM [inhibitor, partial curve, poor fit] | 
COc1ccc(CCN2CC(O)=C(c3nc4ccccc4c(=O)[nH]3)C2=N)cc1OC |  | inactive: -7.13%
CCn1cc(C(=O)NCCC2=CCCCC2)c(=O)c2cc(S(=O)(=O)N(C)C)ccc21 | inconclusive: 79.4 µM [inhibitor, single point] | 
Cc1cccc(C(=O)Nc2ccc(C(=O)N/N=C/c3ccco3)cc2)c1 |  | inactive: -4.47%
Clc1ccc(-c2cnnc(-c3ccccn3)n2)cc1 |  | inactive: 5.17%
CCN1C(=O)[C@H]2[C@@H](c3ccc(-c4ccc(OC)cc4)c(OC)c3)N3CCCC[C@@]3(C(=O)OC)[C@H]2C1=O | inconclusive: 100 µM [inhibitor, partial curve, poor fit] | 

— PubChem BioAssay AID504937 (National Center for Advancing Translational Sciences (NCATS), 2011)
